Results as given in the supplement of paper PMC3334620.
Whole data set: some 33,000 sequences, median “E-score (-0.5 to 0.5)” near -0.011, cut for the highest 2% near 0.28. The list shows a part of the results.

Molecular target: T1, Gcr1 (UniProt P07261)
T1 sequence: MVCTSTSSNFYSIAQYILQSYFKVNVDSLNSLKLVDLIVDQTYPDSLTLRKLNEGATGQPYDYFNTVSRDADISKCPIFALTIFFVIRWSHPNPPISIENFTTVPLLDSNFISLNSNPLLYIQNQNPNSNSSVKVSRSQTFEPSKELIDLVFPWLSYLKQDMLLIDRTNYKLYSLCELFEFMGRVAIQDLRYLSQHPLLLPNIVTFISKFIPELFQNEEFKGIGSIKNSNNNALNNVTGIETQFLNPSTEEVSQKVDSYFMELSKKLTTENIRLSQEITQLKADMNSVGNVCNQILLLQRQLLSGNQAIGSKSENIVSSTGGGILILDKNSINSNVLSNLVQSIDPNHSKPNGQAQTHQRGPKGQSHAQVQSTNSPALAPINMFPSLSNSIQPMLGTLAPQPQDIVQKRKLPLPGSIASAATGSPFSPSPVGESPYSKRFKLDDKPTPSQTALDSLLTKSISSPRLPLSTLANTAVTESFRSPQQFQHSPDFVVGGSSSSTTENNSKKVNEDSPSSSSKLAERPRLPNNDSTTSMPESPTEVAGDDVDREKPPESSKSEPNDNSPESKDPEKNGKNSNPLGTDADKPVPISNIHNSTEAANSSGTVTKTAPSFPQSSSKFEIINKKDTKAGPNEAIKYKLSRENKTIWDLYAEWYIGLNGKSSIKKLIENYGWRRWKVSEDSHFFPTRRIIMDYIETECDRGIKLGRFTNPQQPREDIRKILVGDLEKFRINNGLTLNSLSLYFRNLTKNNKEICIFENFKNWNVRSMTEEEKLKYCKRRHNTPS
Assay: PBM E-score (8-mer binding enrichment) (E-score (-0.5 to 0.5)); higher = stronger / more preferred TF binding; most listed sequences are background and not binding sites
Settings: protein concentration: 100 nM; construct: GST-full length
Method: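 Universal 'all 10-mer' protein binding microarrays (Agilent AMADID 015681) probed with GST-tagged S. cerevisiae TFs (full-length or DBD) made by in vitro transcription/translation (PURExpress), about 100-200 nM. Bound TF was detected with fluorescent anti-GST. Each ungapped 8-mer (which stands for itself and its reverse complement) is scored by the PBM enrichment score (E-score), a modified Wilcoxon-Mann-Whitney statistic from -0.5 to +0.5, computed with the Universal PBM Analysis Suite. Scale: above 0.35 generally sequence-specific binding.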

Sequence | PBM E-score
ACAGTCTG | -0.286
GATTTGAA | -0.0188
CCGTCAAA | -0.0216
CGGATAGC | 0.0158
TCGCCCGA | -0.0882
AGCATCAT | 0.202
ACATACCG | -0.0373
AGCTCGCA | -0.148
GACCACTC | 0.0276
AACTCGCT | 0.075
TACGATAA | -0.111
CAAATTTC | 0.0854
CTAGGCAC | -0.135
GTACCTCA | -0.0838
CTCGCGAA | -0.0124
GCCTGATA | -0.0293
AAAGGAAG | 0.361
ACGGTTTG | -0.185
AACTTGCA | -0.0638
GCCCCTGA | 0.0407
CCGTGAAA | 0.012
CTTTACTA | 0.117
CGGGATCC | 0.371
ATAAGTAA | 0.11
CCTCTTCA | 0.124

Sequence | PBM E-score
GTGAGCCA | -0.0503
CAATGGAA | 0.0554
ATAAATAA | 0.188
ATTACGAG | 0.0949
CCGGTCCC | 0.0992
CTCTTAGA | 0.0233
AGAAAAAC | 0.134
TCGTCACA | 0.06
CCATCCCC | 0.0989
ACATCATA | 0.113
CACATGCG | -0.176
AGCGTGGG | -0.0598
AATTAGCC | -0.0206
AGATTATG | -0.0761
TCGTGCCA | -0.0736
TAGCTCCA | 0.0276
CGAACCGA | -0.0923
AGTGGCGG | 0.145
CAGCCCAA | -0.047
GGCCACGA | -0.24
CCCACTGC | 0.0146
CGAATGGC | 0.137
TCGGCCAA | -0.112
CAGGGACG | -0.167
AGATACGA | 0.162

Sequence | PBM E-score
ATGGGCTG | -0.157
CACTAGCA | 0.00014
GTAACGAC | -0.00515
CATTCTTC | -0.149
TACCAAAA | 0.16
ACAGGCCC | -0.0807
AACTAAAT | 0.123
AATCACCA | -0.0774
CCACTTTC | 0.176
AGCCGGCT | -0.28
CTTAGCCC | -0.201
AGGATCTG | 0.0791
AGTTAGTA | -0.141
ACTGCTAC | -0.0644
GACGAAAA | 0.0647
CGTTAGCA | 0.0177
GGTTTCCA | 0.119
AGCATCGG | -0.0896
CGTAAGAG | -0.199
GCTAAGAA | 0.101
ACCATACA | 0.15
TATGGAGA | 0.0442
CCTGAATC | 0.162
GAATGATC | -0.0425
CGTTCGTA | -0.0903

Sequence | PBM E-score
ACGTACCG | -0.0561
AGGTACCT | 0.0966
GCTATAAA | 0.0588
CTTAGCAC | 0.0977
GTTGTTAA | 0.0289
ATCGATAA | -0.0916
ACCCGTGG | -0.109
CTCGACAA | 0.107
GTTTTGGA | 0.122
AACCTACG | -0.0314
CAATATGG | -0.161
ACACGGAA | -0.017
CGGGCAAA | -0.142
AGGCTTTA | -0.162
ATCCTTAC | 0.0414
ATAGATGA | 0.0506
CAGAGCCA | -0.164
ATATACAG | 0.039
ACTAGTTC | -0.0543
ACCCCTTG | -0.169
CCAGATTA | 0.233
ATGTTACA | -0.12
AAAAGTAC | -0.105
GGTTAGTA | 0.0982
GAAATTAC | 0.0745

Sequence | PBM E-score
GCAGCTAA | 0.329
CGCAGTAA | -0.28
ATCTGCAG | 0.0894
AGTTCGGG | 0.187
GCATCGTA | 0.0744
GCAGTCTA | -0.188
GCGAACGC | -0.155
CAGCTTGC | -0.267
CTAGCAGC | 0.221
CACTGTTC | -0.226
TAAGTTCA | -0.00916
AAGCTTTC | -0.115
CAAGCCGG | -0.0195
TCGACTCA | -0.207
ACGCCTAT | 0.0338
GAGAGCGC | -0.182
CGCGACCG | -0.0228
ACGGGCGG | -0.21
ATCCGTCA | -0.0781
AAGTTTCT | 0.0439
ATTTCCTA | -0.0777
TCAGCAAA | -0.107
CATATGAG | -0.0334
GTAGGGAC | -0.0856
GAGGCGGC | 0.167

Sequence | PBM E-score
ACTGGTGC | 0.269
TAGCCTAA | -0.202
ATCCGAAA | 0.211
ACCAAGAC | 0.0875
GTACGGTA | -0.0689
GGCAGGAA | -0.0713
AGTCTCCC | 0.0304
AGCGGACG | 0.108
CCGCGAGG | -0.13
CTCTTCGA | -0.135
CCCTTCCC | 0.0106
TCAATTCA | 0.0203
GCCTCCTA | 0.136
GGGCGAGA | -0.0433
AGCTATAT | 0.0268
CGCTGAAA | -0.054
AAGTGCCG | 0.0227
CTCCATAA | 0.0785
CTAAGACC | -0.125
AAAAAACC | 0.105
AGAGCCAA | -0.13
TGGGACCA | 0.13
GCTGGACA | -0.0923
ACTAAATG | 0.0763
GAGTAAAA | -0.0867

Sequence | PBM E-score
AGATGTCC | -0.0276
AGTGCCAC | 0.00244
AAAACCGG | 0.0517
AAGCTGGG | -0.00909
GCGTGCAA | -0.0573
CAGGAAGC | 0.434
GCCCACGA | -0.0428
GCGTGAAA | 0.0969
ACTCCAAT | 0.0978
ATGACTGC | -0.144
GAGTGTGC | -0.3
TCCTCCAA | -0.0784
CTGAACTC | -0.22
ATGACTTG | -0.0158
ACTATGTA | 0.0376
GTGCGATA | 0.0295
CTGGCAAA | 0.0175
ATCTTCGA | 0.0259
AATACCCG | 0.00049
TACATAAA | -0.0462
CACAATTC | 0.0963
GAGCGCCC | 0.234
